Screen size: about 420,000 compounds; about 50,000 (12%) were called active. Inconclusive results, whose numbers are uncertain, are shown with a selection of clear calls. Calls come from the whole dose curve; as a rule, active = well fitted inhibition curve with a large enough effect; inconclusive = small, poorly fitted or top-dose-only effect; inactive = flat fitted curve, though single readings scatter. Potencies of inconclusive entries are left out as doubtful fits.
Assay: qHTS for Inhibitors of human tyrosyl-DNA phosphodiesterase 1 (TDP1): qHTS in cells in presence of CPT; note: nearly all actives have a fitted effect of over 55% in size
Details: chicken DT40 Tdp1-/-;hTDP1 cells + 20 nM CPT, ATP luminescence, 48 h; activity change, negative = growth inhibition: at 46.2 µM (top of the series)
Outline: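 Chicken DT40 Tdp1-/- cells stably complemented with human TDP1 were seeded at 400 cells/well in medium containing 20 nM camptothecin, exposed to pin-transferred compounds, and grown at 37 °C for at least 48 hr. Viability was read as ATP luminescence.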
In the case of `C[C@@H](C(=O)Nc1ccc2ccccc2c1)[C@@H]1C[C@@]1(C)[C@@H](N)c1ccccc1`, the Potency is reported as inconclusive [inhibitor, single point]. With `Cc1cccc2c(N=Nc3ccccc3)c(O)[nH]c12` the “activity change, negative = growth inhibition” value was inactive: -2.67%. In the case of `Cc1ccc(NC(=O)C(=O)NCCc2csc3nc(-c4ccccc4C)nn23)cc1Cl`, the “activity change, negative = growth inhibition” value is reported as inactive: -5.8%. For `O=C(Nc1ccc(S(=O)(=O)N(Cc2ccccc2)c2ccccc2)cc1)c1ccc([N+](=O)[O-])cc1`, the Potency was active: 2.91 µM. For `O=C(NCc1ccc2c(c1)CCN2C(=O)c1ccccc1)c1ccco1`, the Potency was inconclusive [inhibitor, single point]. For `COCCn1c(SCC(=O)Nc2ccc(C(F)(F)F)cc2)nc2c([nH]c3ccccc32)c1=O`, the Potency was inconclusive [inhibitor, single point]. For `Cc1ccc(NC(=O)c2oc3ccc(S(=O)(=O)N4CCC5(CC4)OCCO5)cc3c2C)c(C)c1`, the Potency was active: 8.2 µM. With `COc1ccc(C(CNC(=O)CSc2ccccc2)N2CCOCC2)cc1` (centres undefined) the “activity change, negative = growth inhibition” value was inactive: -14.8%. With `COc1ccc(CNC(=O)C2CCCN2C(=O)Nc2cccc(Cl)c2)cc1` (centres undefined) the “activity change, negative = growth inhibition” value was inactive: -16.2%. For `COc1cccc(N2CCN(C(=O)c3cc4c(=O)n(Cc5ccco5)ccc4nc3C)CC2)c1`, the Potency was active: 16.4 µM. In the case of `O=C(O)c1ccc2ncsc2c1`, the “activity change, negative = growth inhibition” value is reported as inactive: -1.4%. For `CCC(O)(C(=O)Nc1ccccc1C(F)(F)F)c1ccccc1OC` (centres undefined), the “activity change, negative = growth inhibition” value was inactive: -13.1%. For `COc1ccc(CCN2C(=O)C3CC=C(C)CC3C2=O)cc1OC` (centres undefined), the “activity change, negative = growth inhibition” value was inactive: -29.7%. In the case of `Brc1ccc(-c2nc3ncccn3c2NC2CCCCC2)o1`, the Potency is reported as active: 16.4 µM. With `Cc1nnc(NC(=O)CSc2nnc(CCc3nc4ccccc4[nH]3)n2C)s1` the “activity change, negative = growth inhibition” value was inactive: 0.665%. With `O=C(Cc1ccc(S(=O)(=O)N2CCOCC2)s1)Nc1ccc(N2CCOCC2)cc1` the “activity change, negative = growth inhibition” value was inactive: 8.37%. With `O=[N+]([O-])c1cccc(CSc2ncnc3ccccc23)c1` the “activity change, negative = growth inhibition” value was inactive: -16.1%. For `COc1ccccc1CNS(=O)(=O)c1c(C(=O)N2CCCCCC2)c(C)n(C)c1C`, the “activity change, negative = growth inhibition” value was inactive: -14.8%. With `CCOc1ccc(S(=O)(=O)N2CCCCC2)cc1NC(=O)CN1CCCC1c1cccs1` (centres undefined) the Potency was active: 3.66 µM. With `COc1cc(NC(=O)COC(=O)CNC(=O)C2CCCCC2)cc(OC)c1` the “activity change, negative = growth inhibition” value was inactive: -25.8%. In the case of `CCCN(CC(=O)Nc1ccccc1C)C(=O)CCl`, the Potency is reported as active: 2.59 µM. With `CCCNC(=O)C1(C)CCCN(Cc2cccc3ccccc23)C1` (centres undefined) the Potency was inconclusive [inhibitor, single point]. With `O=C(NCC(=O)N1CCCCCC1)c1ccc(Cl)cc1` the Potency was inconclusive [inhibitor, single point]. In the case of `COc1ccccc1C1CCN(c2ccc([N+](=O)[O-])c(OC)c2)CC1`, the Potency is reported as inconclusive [inhibitor, single point]. For `Cc1ccc(N2CCN(C(=S)c3ccc(-c4ccccc4[N+](=O)[O-])o3)CC2)cc1`, the Potency was inconclusive [inhibitor, single point]. In the case of `COc1ccccc1-c1nnc(SCC(=O)Nc2ccc(N3CCOCC3)cc2)n1C`, the “activity change, negative = growth inhibition” value is reported as inactive: 5.4%. With `O=C(NCCc1ccccc1F)[C@@H]1CSC2c3ccccc3C(=O)N21` (some centres undefined) the “activity change, negative = growth inhibition” value was inactive: -24.3%. For `COc1cc(C(=O)OCc2csc(CC(=O)Nc3cc(C)ccc3C)n2)ccc1OC(F)F`, the Potency was inconclusive [inhibitor, single point]. For `CC(=O)c1c(C)[nH]c(C(=O)Nc2cccc(S(=O)(=O)N3CCCC3)c2)c1C`, the Potency was inconclusive [inhibitor, single point]. For `N/C(Cn1cncn1)=N\OC(=O)c1ccc(Cl)cc1Cl`, the Potency was inconclusive [inhibitor, full curve, poor fit]. For `CC(=O)c1c(C)[nH]c(C(=O)CSc2nc3ccc(C)cc3[nH]2)c1C`, the Potency was inconclusive [inhibitor, single point]. With `NCCNC(=O)c1c(O)c2cccc3c2n(c1=O)CCC3` the “activity change, negative = growth inhibition” value was inactive: -2.5%. In the case of `COC(=O)c1ccc2nc(C3CCCCC3)c(Cc3ccccc3)n2c1`, the Potency is reported as active: 16.4 µM. With `COc1ccc(S(=O)(=O)N2CCC(C(=O)NCCN3CCOCC3)CC2)cc1` the “activity change, negative = growth inhibition” value was inactive: -6.44%. For `CCc1cc2c(-c3ccccc3)cc(=O)oc2cc1OC(=O)c1cccs1`, the Potency was inconclusive [inhibitor, single point]. For `Clc1ccc2[nH]c3c(c2c1)CNCC3`, the “activity change, negative = growth inhibition” value was inactive: -7.88%. For `COc1ccc(C/C(O)=C(\C#N)c2nc3ccccc3s2)cc1`, the Potency was inconclusive [inhibitor, single point]. With `O=C(CC1OC(=O)c2ccccc21)Nc1cccc(S(=O)(=O)N2CCCCCC2)c1` (centres undefined) the Potency was inconclusive [inhibitor, single point]. In the case of `CC(NC(=O)COC(=O)c1cccnc1Cl)C12CC3CC(CC(C3)C1)C2` (centres undefined), the activity change, negative = growth inhibition is reported as inconclusive: -32.5% [inhibitor]. For `CC(=O)N1C[C@@H](CO)[C@@H](N(C)C(=O)C(C)(C)C)C[C@H]1c1ccccc1`, the “activity change, negative = growth inhibition” value was inactive: -18.1%. For `CCOc1cc(CNCCCN2CCOCC2)cc(Cl)c1OCC(=O)NC(C)(C)C`, the Potency was inconclusive [inhibitor, single point]. In the case of `NC(=O)CNC(=O)[C@@H]1CC2(CC(c3cccc(Br)c3)=NO2)CN1C(=O)c1ccc(Br)cc1` (some centres undefined), the Potency is reported as inconclusive [inhibitor, single point]. With `Cc1ccc(C(=O)N/C(=C/C=C/c2ccccc2)C(=O)NCc2ccco2)cc1` the Potency was inconclusive [inhibitor, single point]. For `CC(C)(C)c1ccc(CC(=O)N2CCC2(C)C(=O)Nc2cccc3c2CCCC3)cc1` (centres undefined), the Potency was inconclusive [inhibitor, single point]. For `Cc1ccc(NC(=O)C2c3ccccc3Oc3ccccc32)c(C)c1`, the “activity change, negative = growth inhibition” value was inactive: -19.2%. In the case of `COc1ccc(N2C(N)=NC(N)=NC2(C)C)cc1`, the Potency is reported as inconclusive [inhibitor, full curve]. For `COc1ccc(S(=O)(=O)NC(C)C(=O)NCc2ccccn2)cc1Cl` (centres undefined), the “activity change, negative = growth inhibition” value was inactive: -0.242%. With `C/C(=N/NS(=O)(=O)c1ccc(Br)cc1)c1cccc(NC(=O)C2CC2)c1` the “activity change, negative = growth inhibition” value was inactive: -16.9%. With `CCCOc1ccc(NC(=O)C2CC(=O)N/C(=N/N=C(C)/C=C/c3ccc(N(C)C)cc3)S2)cc1` (centres undefined) the Potency was inconclusive [inhibitor, single point].

Reference: PubChem BioAssay AID686979 (National Center for Advancing Translational Sciences (NCATS), 2013)
% is set by controls: 0 for no effect and ±100 for the full control effect; potency is the fitted concentration of half-maximal effect; tags give direction and shape of the fitted curve.
